Assay results: PubChem BioAssay AID445 (National Center for Advancing Translational Sciences (NCATS), 2006)
The whole screen tested about 110,000 compounds, of which about 40 (0.04%) were called active. Inconclusive means that the source gave no clear call. Such entries were picked first, then a sample of the others. Calls come from the whole dose curve; as a rule, active = well fitted curve in the direction sought with a large enough effect in the signal ratio (not every such curve was filed as active); inconclusive = small, poorly fitted or top-dose-only effect, or a change in a side signal; inactive = flat fitted curve, though single readings scatter; the % refers to the signal ratio. A potency beside an inconclusive call is a rough fit, not a confirmed value.

Assay: IkB Signaling;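 for IkBa stabilization activation: 0% = basal untreated cells and 100% = reference inhibitor full response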
Settings: ABC-DLBCL IkBa-CBG/CBR dual luciferase ratio (green luciferase fused to IkBa over red control in OCI-Ly3 lymphoma cells), 4 h; IkBa stabilization activation: at 57.1 µM (top of the series), scaled: untreated 0%, proteasome inhibitor 100% unless noted
Outline: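 In this assay, an IκBα–CBG68 fusion accumulates when IKK-driven degradation is blocked; native CBR normalizes for cell number. OCI-Ly3 cells were treated 4 h with compound and doxycycline, then green and red light read after Chroma-Glo addition.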
Potency is the fitted concentration of half-maximal effect.

Structure (SMILES)	IkBa stabilization activation	Potency
Cc1ccc(Cn2c(CN3CCC(C(=O)NCc4ccccc4C)CC3)cc3ccccc32)cc1	inconclusive: 1.23% [signal inhibitor]	
C=CCOC(=O)c1[nH]c2c(c1C)C(=O)CC(c1cc(OC)c(OC)c(OC)c1)C2 (configuration not stated)	inconclusive: 8.61% [signal inhibitor]	
CCCn1c(=O)c2ccccc2n2c(SCCOc3ccc(OC)cc3)nnc12	inactive	
COC(=O)c1ccc(NC(=O)CCS(=O)(=O)c2ccc(Br)s2)cc1	inconclusive: 3.29% [signal inhibitor]	
COC(=O)c1ccc(NC(=O)CC2C(=O)N(c3cccc(OC)c3)C(=O)N2Cc2ccco2)cc1 (configuration not stated)	inactive	
COc1ccccc1-c1cc(=O)c2cc(O)ccc2o1	inactive: -2.57% [at 11.4 µM, scaled: untreated 0%, proteasome inhibitor 100%]	
CCc1ccc(NC(=O)CSc2nc3ccccc3nc2Cc2ccc(C)cc2)cc1	inconclusive: -1.08% [signal inhibitor]	
COc1ccc(C(=O)CSc2nc(C)cc(C)c2C(=O)Nc2ccccc2C)cc1	inconclusive: 6.4% [signal inhibitor]	
COc1ccc(-c2nnc(N(C)C(=O)c3cccnc3)s2)cc1	inactive	
COc1ccc(Cl)cc1NC(=O)Cn1ncc2c3ccccc3n(C)c2c1=O	inconclusive: 12.6% [signal activator]	
CCCN(Cc1cccs1)C(=O)Nc1cc(Cl)ccc1C	inconclusive: -0.503% [signal inhibitor]	
Cc1ccc2[nH]c3c(=O)n(CC(=O)NCc4ccco4)ncc3c2c1	inactive	
COc1ccc2[nH]cc(CCNc3ccnc(-c4ccc5c(c4)OCO5)n3)c2c1	inactive: 4.93% [at 11.4 µM, scaled: untreated 0%, proteasome inhibitor 100%]	
O=C(NCc1ccc(Cl)cc1)c1ccc2c(Cl)c3c(nc2c1)CCCC3	inconclusive: 4.78% [signal inhibitor]	
Cc1ccc(C)c(N2CCN(C(=O)CCC(=O)Nc3ccc4nc(N5CCCCC5)cc(C)c4c3)CC2)c1	inconclusive: 5.27% [signal inhibitor]	
COc1cc(NC(=O)CN2C(=O)c3ccccc3C2=O)c(C(=O)O)cc1OC	inactive	
C=CCn1c(SCc2ccccc2C#N)nnc1-c1cc(Br)ccc1O	inconclusive: -0.324% [signal inhibitor]	
CCOC(=O)c1cccc(NC(=O)CCCn2nc(C)c3c(C)n(-c4ccccc4)nc3c2=O)c1	inconclusive: 1% [signal inhibitor]	
CC1(C)S[C@@H]2[C@H](NC(=O)C(N)c3ccccc3)C(=O)N2[C@H]1C(=O)O (some centres not stated)	inactive	
Cn1cnnc1SCC(=O)c1c[nH]c2ccccc12	inactive	
O=C(NCc1ccccc1F)C1CCN(c2nnc(-n3cccc3)s2)CC1	inconclusive: 2.33% [signal inhibitor]	
COc1ccccc1NC(=O)CSc1nnc(-c2ccccc2C)o1	inconclusive: 0.608% [signal inhibitor]	
CSc1nsc(SCC(=O)N2CCc3ccccc32)n1	inactive	

Structure (SMILES)	IkBa stabilization activation	Potency
COc1ccc2c(c1)c(=O)c(C(=O)c1ccccc1)cn2CC(=O)Nc1ccc2c(c1)OCCO2	inconclusive: -1.03% [signal inhibitor]	
COCCNC(=O)c1ccc2c(=O)n(CCc3ccccc3)c(SCC(=O)CC(=O)OC)nc2c1	inconclusive: -3.59% [signal inhibitor]	
COc1cccc(-c2nc(S(=O)(=O)c3ccccc3)c(N3CCCCC3)o2)c1	inconclusive: 1.22% [signal inhibitor]	
COc1ccccc1CNC(=O)c1ccc(CS(=O)(=O)c2c(Cl)cccc2Cl)o1	inconclusive: -1.51% [signal inhibitor]	
CCc1ccc(CNC(=O)c2c3c(nc4ccccc24)C(=O)N(C2CCCCC2)C3)cc1	inconclusive: 3.69% [signal inhibitor]	
Cn1c(C(C#N)C2=C(Cl)C(=O)N(c3ccccc3)C2=O)nc2ccccc21 (configuration not stated)		inconclusive: 39.8 µM [signal inhibitor, partial curve]
Cc1ccccc1OCCCCn1c(-c2ccc(Cl)cc2)nc2ccccc2c1=O	inconclusive: 2.54% [signal inhibitor]	
CCOC(=O)c1ccc(N2C(=O)c3[nH]nc(-c4ccc(C)cc4)c3C2c2ccc(O)c(OCC)c2)cc1 (configuration not stated)	inconclusive: 0.983% [signal inhibitor]	
COc1cc2c(=O)c(C(=O)c3ccc(C)c(C)c3)cn(Cc3ccccc3F)c2cc1OC	inconclusive: 5.21% [signal inhibitor]	
COc1ccc(Nc2nc(-c3cccc(Cl)c3)c3c(n2)-c2ccccc2OC3)cc1	inactive	
CCOc1ccccc1CNC(=O)Cc1ccc(NC(=O)N2CCCCc3ccccc32)cc1	inconclusive: 1.02% [signal inhibitor]	
CN(Cc1ccco1)c1cc(-c2ccc3c(c2)OCO3)ncn1	inactive: -1.05% [at 11.4 µM, scaled: untreated 0%, proteasome inhibitor 100%]	
c1ccc(CCc2cccnc2)nc1	inactive: -0.387% [at 11.4 µM, scaled: untreated 0%, proteasome inhibitor 100%]	
CCOc1ccc(NC(=O)CSc2nc3ccsc3c(=O)n2C(C)CC)cc1 (configuration not stated)	inconclusive: 1.65% [signal inhibitor]	
CCOc1ccc(CCNC(=O)CCc2c(C)nc3c(c(C)nn3-c3ccc(C)c(C)c3)c2C)cc1	inconclusive: 1.28% [signal inhibitor]	
Cc1cccc2c1-c1sc(C(=O)N3CCN(c4ccccc4)CC3)cc1CO2		inconclusive: 12.6 µM [signal inhibitor, partial curve]
COc1ccc(-c2noc(N3CCC(C(=O)N4CCN(c5ccccc5OC)CC4)CC3)n2)cc1	inconclusive: -1.04% [signal inhibitor]	
CCOc1cccc(Nc2nn(-c3ccc(OC(F)(F)F)cc3)nc2C(C)=O)c1	inconclusive: 2.08% [signal inhibitor]	
CCOC(=O)c1cnc2c(C)c(Cl)ccc2c1NCCc1ccc(OC)c(OC)c1	inconclusive: 17% [signal inhibitor]	
Cn1cccc1C(=O)N1CCC2(CC1)CCN(c1ccc(-c3ccccc3)cc1)CC2	inactive: 4.16% [at 11.4 µM, scaled: untreated 0%, proteasome inhibitor 100%]	
COc1ccc(-c2nc3ccccc3s2)cc1O		inconclusive: 12.6 µM [signal inhibitor, partial curve]
COc1cccc(N2CCN(c3c4c(nc5nncn35)CCC4)CC2)c1	inconclusive: 2.78% [signal inhibitor]	
Cc1cccc(Cn2cc3c(=O)n(CC(=O)Nc4c(C)cccc4C)nc-3c3cc(F)ccc32)c1	inconclusive: 4.13% [signal inhibitor]	

Structure (SMILES)	IkBa stabilization activation	Potency
CCOC(=O)c1cnc(SCC(=O)c2ccc3c(c2)OCCO3)nc1N		inconclusive: 25.1 µM [signal inhibitor, partial curve]
O=C1C(c2ccccn2)=[N+]([O-])c2ccccc21	inconclusive: 6.4% [signal inhibitor]	
O=C(NCCN1CCN(c2ccccc2)CC1)Nc1cccc(Br)c1	inconclusive: 0.491% [signal inhibitor]	
Cc1ccc(NC(=O)C2CCN(S(=O)(=O)c3c(C)noc3C)CC2)cc1		inconclusive: 15.8 µM [signal inhibitor, partial curve]
CN(C)c1ccc(-c2nc(NCc3cccnc3)c3ccccc3n2)cc1	inactive: -1.84% [at 11.4 µM, scaled: untreated 0%, proteasome inhibitor 100%]	
Cc1cc(NCCCN2CCOCC2)n2nc(C)c(-c3ccccc3)c2n1	inactive	
O=C(Nc1ccccc1)N1CCCC2(CCNCC2)C1	inactive: -0.12% [at 11.4 µM, scaled: untreated 0%, proteasome inhibitor 100%]	
Fc1ccc(-c2nnn(Cc3nc4ccccc4s3)n2)cc1	inconclusive: 2.35% [signal inhibitor]	
CCOC(=O)c1ccc(NC(=O)C2CC(=O)NC(=Nc3ccc(C)c(C)c3)S2)cc1 (configuration not stated)	inconclusive: 7.68% [signal inhibitor]	
CCCCN(C)CCNC(=O)c1ccc(Cn2c(=O)[nH]c3cc(OC)c(OC)cc3c2=O)cc1	inconclusive: -1.47% [signal inhibitor]	
Cc1cccc(NC(=O)Nc2ccc(F)cc2)n1	inactive	
CCc1nnc(NC(=O)CSc2nnc(-c3ccc(O)cc3)n2-c2ccccc2)s1	inactive	
CCCCCCCC/C=C\CCCCCCCC(=O)NCCc1ccc(O)c(O)c1	inactive	
O=c1c2c3nc4ccccc4nc3n(-c3cccc(F)c3)c2ncn1Cc1ccc2c(c1)OCO2	inactive	
CCc1ccc(CNC(=O)c2ccc3c(Cl)c4c(nc3c2)CCCC4)cc1	inconclusive: 9.54% [signal inhibitor]	
COc1ccc(-c2ncc3ccccn23)cc1	inactive	
COC(=O)Cc1c(C)nc2nc(-c3cccnc3)[nH]n2c1=O	inactive	
Cc1ccc(C)c(NC(=O)Cn2cc(C(=O)C3CCCCC3)c3ccccc32)c1	inconclusive: 1.92% [signal inhibitor]	
O=C(CN1CCCN(Cc2ccc(Cl)cc2)S1(=O)=O)Nc1ccccc1F	inconclusive: -0.165% [signal inhibitor]	
COc1cccc(NC(=O)c2oc3ccccc3c2NC(=O)c2ccc(C(F)(F)F)cc2)c1	inactive	
COc1cccc2c1Oc1ncccc1N(C(=O)CCC(=O)NCc1ccc(N(C)C)cc1)C2	inconclusive: -1.35% [signal inhibitor]	
